How the values were obtained:
EGFRvIII peptide-OVA = molecular target: T1, EGFRvIII peptide-OVA (Homo sapiens, UniProt P00533, DELINS30-297G); experiment: Hybridoma supernatant ELISA on EGFRvIII peptide-OVA coated plates; format: binding; settings: clone supernatant
T1 construct: 207 μg of EGFRvIII PEP3 was reduced; host or cells: synthetic peptide, chemical conjugation
Procedure: (§1) Cells were plated in flat bottomed 96-well tissue culture plates at 4×10^4 cells per well. Cultures were maintained in HAT (hypoxanthine, aminopterin and thymidine) supplemented media for 2 weeks before transfer to HT (hypoxanthine and thymidine) supplemented media. Hybridomas were selected for by survival in HAT medium and supernatants were screened for antigen reactivity by ELISA. The ELISA format entailed incubating supernatants on antigen coated plates (EGFRvIII peptide-OVA coated plates and wild type EGFr peptide-OVA coated plates as a counter screen) and detecting EGFRvIII-specific binding using horseradish peroxidase (HRP) labeled mouse anti-human IgG (see Table 2.1).

[1] = tested on: wild type EGFr peptide-OVA; experiment: Hybridoma supernatant ELISA counter screen on wild type EGFr peptide-OVA coated plates; format: binding; settings: clone supernatant
Procedure: as §1

[2] = molecular target: T2, EGFRvIII expressing cells (H1477) (Homo sapiens, UniProt P00533, DELINS30-297G); experiment: Selectivity for EGFRvIII expressing cells compared to ABX-EGF; format: binding
T2 construct: host or cells: H1477 cells

EGFRvIII = experiment: Affinity for EGFRvIII; format: binding; settings: in words
[3] = molecular target: T3, EGFRvIII receptor in NR6 M cells (Homo sapiens, UniProt P00533, DELINS30-297G); experiment: Internalization of EGFRvIII receptor by recombinant mAbs (FACS); format: cell-based
T3 construct: NR6 M cells stably expressing full length EGFRvIII; expressed in transfected cells; host or cells: NR6 cells (NR6 M)
Procedure: XenoMax derived IgG1 recombinant antibodies were expressed, purified and quantitated as described previously. Antibodies were further assayed for their ability to internalize the EGFRvIII receptor in NR6 M cells. […] The cells were washed with cold 10% FCS in PBS and secondary antibody (SS Alexa antihuman IgG Fab) at 3 μg/ml Fab was added and incubated for 7 mins on ice. The cells were washed with cold 10% FCS in PBS once and then resuspended in cold media. Next, two sets of the triplicate were incubated at 37° C. and the remaining set was incubated at 4° C. for 1 hr. After that the cells incubated at 4° C. and one set of the cells incubated at 37° C. were treated with glutathione (as previously mentioned) for 1 hr on ice. Then the cells were washed and resuspended in 100 μl of cold 1% FCS in PBS and analyzed by FACS. The % internalization was calculated from the geometric mean obtained from the FACS analysis [(mean at 37° C. with glutathione−mean at 4° C. with glutathione)/(mean at 37° C. without glutathione−mean at 4 C with glutathione)].

OD #2 muEGFr (EGFRvIII peptide-OVA): 1.272
OD #1 cloning plate (EGFRvIII peptide-OVA; cloning plate): 2.248
selectivity for EGFRvIII expressing cells (H1477) as compared to ABX-EGF [2]: superior selectivity
FACS Geometric mean With glutathione 4° C. ([3]; 0.25 μg/ml antibody, 1 hr): 5.38
FACS Geometric mean With glutathione 37° C. ([3]; 0.25 μg/ml antibody, 1 hr): 19.19
internalization by cells ([3]; in words): internalized well
B1: 13.1.2: subclone of hybridoma 13.1; human anti-EGFRvIII antibody, heavy/light chain SEQ ID NO: 138/140 (antibody, listed as Homo sapiens)
VH: QVQLVESGGGVVQPGRSLRLSCAASGFTFSSYGMHWVRQAPGKGLEWVAVIWYDGSNKYYVDSVKGRFTISRDNSKNTLYLQMNSLRAEDTAVYYCARDGWQQLAPFDYWGQGTLVTVSSASTKGPSVFPLAPSSKSTSGGTAALGCLVKDYFPEPVTVSWNSGALTSGV
light: [about 100 residues omitted]QLPRTFGQGTKVEIKRTVAAPSVFIFPPSDEQLKSGTASVVCLLNNFYPREAKVQWKVDNALQSGNSQ
OD #2 EGFr [1]: 0.041
affinities for EGFRvIII (EGFRvIII): very high affinities

From patent US20140314667A1, “METHODS OF TREATING EPIDERMAL GROWTH FACTOR DELETION MUTANT VIII RELATED DISORDERS” (AMGEN INC., priority 2011, published 2014)
